# The supplement of paper PMC8728848
# This is one part of the list.
# Key:
# Assay in all cases: glycan array binding signal (z-score within array); higher = stronger binding
# Conditions in all cases: glycan notation: IUPAC condensed, linker removed
# [1] = target: Neu5Ac(a2-6)Gal(b1-4)GlcNAc(b1-3)Gal(b1-4)[Fuc(a1-3)]GlcNAc(b1-3)Gal(b1-4)[Fuc(a1-3)]GlcNAc
# Method in brief: (§1)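 From the Consortium for Functional Glycomics database, 3228 arrays were curated, keeping only those whose protein sequence was available. Binding is given as a within-array Z-score averaged across arrays sharing a protein sequence and across linkers. Negative Z-scores can be read as non-binding.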
# [2] = target: Neu5Ac(a2-6)Gal(b1-4)GlcNAc(b1-3)GalNAc
# Method in brief: as §1
# [3] = target: Neu5Ac(a2-6)Gal(b1-4)GlcNAc(b1-3)[Neu5Ac(a2-6)Gal(b1-4)GlcNAc(b1-6)]GalNAc
# Method in brief: as §1
# [4] = target: Neu5Ac(a2-6)Gal(b1-4)GlcNAc(b1-6)GalNAc
# Method in brief: as §1
# [5] = target: Neu5Ac(a2-6)Gal(b1-4)GlcNAc(b1-6)[Gal(b1-3)GlcNAc(b1-3)]Gal(b1-4)Glc
# Method in brief: as §1
# [6] = target: Neu5Ac(a2-6)Gal(b1-4)GlcNAc(b1-6)[Gal(b1-3)]GalNAc
# Method in brief: as §1
# [7] = target: Neu5Ac(a2-6)Gal(b1-4)GlcNAc6S
# Method in brief: as §1
# [8] = target: Neu5Ac(a2-6)GalNAc
# Method in brief: as §1
# [9] = target: Neu5Ac(a2-6)GalNAc(b1-4)GlcNAc
# Method in brief: as §1
# [10] = target: Neu5Ac(a2-6)GalNAc(b1-4)GlcNAc6S
# Method in brief: as §1
# [11] = target: Neu5Ac(a2-6)GlcNAc(b1-4)GlcNAc
# Method in brief: as §1
# [12] = target: Neu5Ac(a2-6)GlcNAc(b1-4)GlcNAc(b1-4)GlcNAc
# Method in brief: as §1
# [13] = target: Neu5Ac(a2-8)Neu5Ac
# Method in brief: as §1
# [14] = target: Neu5Ac(a2-8)Neu5Ac(a2-3)Gal(b1-3)GalNAc(b1-4)[Neu5Ac(a2-3)]Gal(b1-4)Glc
# Method in brief: as §1
# [15] = target: Neu5Ac(a2-8)Neu5Ac(a2-3)Gal(b1-3)GalNAc(b1-4)[Neu5Ac(a2-8)Neu5Ac(a2-3)]Gal(b1-4)Glc
# Method in brief: as §1
# [16] = target: Neu5Ac(a2-8)Neu5Ac(a2-3)Gal(b1-4)Glc
# Method in brief: as §1
# [17] = target: Neu5Ac(a2-8)Neu5Ac(a2-3)Gal(b1-4)GlcNAc
# Method in brief: as §1
# [18] = target: Neu5Ac(a2-8)Neu5Ac(a2-3)[Gal(b1-3)GalNAc(b1-4)]Gal(b1-4)Glc
# Method in brief: as §1
# [19] = target: Neu5Ac(a2-8)Neu5Ac(a2-3)[GalNAc(b1-4)]Gal(b1-4)Glc
# Method in brief: as §1
# [20] = target: Neu5Ac(a2-8)Neu5Ac(a2-8)Neu5Ac
# Method in brief: as §1
# [21] = target: Neu5Ac(a2-8)Neu5Ac(a2-8)Neu5Ac(a2-3)Gal(b1-4)Glc
# Method in brief: as §1
# [22] = target: Neu5Ac(a2-8)Neu5Ac(a2-8)Neu5Ac(a2-3)[Gal(b1-3)GalNAc(b1-4)]Gal(b1-4)Glc
# Method in brief: as §1
# [23] = target: Neu5Ac(a2-8)Neu5Ac(a2-8)Neu5Ac(a2-3)[GalNAc(b1-4)]Gal(b1-4)Glc
# Method in brief: as §1
# [24] = target: Neu5Ac(a2-8)Neu5Ac(a2-8)Neu5Ac(a2-8)Neu5Ac(a2-3)[GalNAc(b1-4)]Gal(b1-4)Glc
# Method in brief: as §1
# [25] = target: Neu5Ac(a2-8)Neu5Gc(a2-3)Gal(b1-4)GlcNAc
# Method in brief: as §1
# [26] = target: Neu5Ac(b1-6)GalNAc
# Method in brief: as §1
# [27] = target: Neu5Ac(b2-6)Gal(b1-4)GlcNAc
# Method in brief: as §1
# [28] = target: Neu5Ac(b2-6)GalNAc
# Method in brief: as §1
# [29] = target: Neu5Ac9Ac(a2-3)Gal(b1-3)GlcNAc
# Method in brief: as §1
# [30] = target: Neu5Ac9Ac(a2-3)Gal(b1-4)GlcNAc
# Method in brief: as §1
# [31] = target: Neu5Ac9Ac(a2-6)Gal(b1-4)GlcNAc
# Method in brief: as §1
# [32] = target: Neu5Gc(a2-3)Gal(b1-3)GlcNAc
# Method in brief: as §1
# [33] = target: Neu5Gc(a2-3)Gal(b1-3)[Fuc(a1-4)]GlcNAc
# Method in brief: as §1
# [34] = target: Neu5Gc(a2-3)Gal(b1-4)Glc
# Method in brief: as §1
# [35] = target: Neu5Gc(a2-3)Gal(b1-4)GlcNAc
# Method in brief: as §1
# [36] = target: Neu5Gc(a2-3)Gal(b1-4)GlcNAc(b1-3)Gal(b1-4)GlcNAc(b1-2)Man(a1-3)[Neu5Gc(a2-3)Gal(b1-4)GlcNAc(b1-3)Gal(b1-4)GlcNAc(b1-2)Man(a1-6)]Man(b1-4)GlcNAc(b1-4)GlcNAc
# Method in brief: as §1
# [37] = target: Neu5Gc(a2-3)Gal(b1-4)[Fuc(a1-3)]GlcNAc
# Method in brief: as §1
# [38] = target: Neu5Gc(a2-6)Gal(b1-4)GlcNAc
# Method in brief: as §1
# [39] = target: Neu5Gc(a2-6)GalNAc
# Method in brief: as §1
# [40] = target: Neu5Gc(a2-8)Neu5Ac(a2-3)Gal(b1-4)GlcNAc
# Method in brief: as §1
# [41] = target: Neu5Gc(a2-8)Neu5Gc(a2-3)Gal(b1-4)GlcNAc
# Method in brief: as §1
# [42] = target: Neu5Gc(a2-8)Neu5Gc(a2-3)Gal(b1-4)GlcNAc(b1-3)Gal(b1-4)GlcNAc
# Method in brief: as §1
# [43] = target: Neu5Gc(a2-8)Neu5Gc(a2-6)Gal(b1-4)GlcNAc
# Method in brief: as §1
# [44] = target: Neu5Gc(b2-6)Gal(b1-4)GlcNAc
# Method in brief: as §1
binder,measurement,setting,value
DBA (Dolichos biflorus) (protein) ANIQSFSFKNFNSPSFILQGDATVSSGKLQLTKVKENGFPLRFPSGRAFYSSPIQIYDKFTGAVASWATSFTVKISAPSKASFADGIAFALVPVGSEPRRNGGYLGVFDSDVYNNSAQTVAVEFDTLSNSGWDPSMKHIGIDVNSIKSIATVSWDLANGENAEILITYNAATSLLVVSLVHPSRRTSYILSERVDITNELPEYVGVGFSATTGLSEGYIETHDVLSWSFASRLPDDSTAEPLDLARYLVRNVL,glycan array binding signal (z-score),[1],-0.149
same,glycan array binding signal (z-score),[2],-0.09
same,glycan array binding signal (z-score),[3],-0.095
same,glycan array binding signal (z-score),[4],-0.037
same,glycan array binding signal (z-score),[5],-0.118
same,glycan array binding signal (z-score),[6],-0.042
same,glycan array binding signal (z-score),[7],-0.118
same,glycan array binding signal (z-score),[8],-0.135
same,glycan array binding signal (z-score),[9],-0.127
same,glycan array binding signal (z-score),[10],-0.11
same,glycan array binding signal (z-score),[11],-0.174
same,glycan array binding signal (z-score),[12],-0.134
same,glycan array binding signal (z-score),[13],-0.121
same,glycan array binding signal (z-score),[14],-0.082
same,glycan array binding signal (z-score),[15],-0.15
same,glycan array binding signal (z-score),[16],-0.158
same,glycan array binding signal (z-score),[17],-0.097
same,glycan array binding signal (z-score),[18],-0.124
same,glycan array binding signal (z-score),[19],-0.114
same,glycan array binding signal (z-score),[20],-0.143
same,glycan array binding signal (z-score),[21],-0.135
same,glycan array binding signal (z-score),[22],-0.044
same,glycan array binding signal (z-score),[23],-0.125
same,glycan array binding signal (z-score),[24],-0.104
same,glycan array binding signal (z-score),[25],-0.086
same,glycan array binding signal (z-score),[26],-0.172
same,glycan array binding signal (z-score),[27],-0.134
same,glycan array binding signal (z-score),[28],-0.143
same,glycan array binding signal (z-score),[29],-0.123
same,glycan array binding signal (z-score),[30],-0.116
same,glycan array binding signal (z-score),[31],-0.124
same,glycan array binding signal (z-score),[32],-0.117
same,glycan array binding signal (z-score),[33],-0.136
same,glycan array binding signal (z-score),[34],-0.104
same,glycan array binding signal (z-score),[35],-0.116
same,glycan array binding signal (z-score),[36],-0.067
same,glycan array binding signal (z-score),[37],-0.143
same,glycan array binding signal (z-score),[38],-0.106
same,glycan array binding signal (z-score),[39],-0.113
same,glycan array binding signal (z-score),[40],-0.154
same,glycan array binding signal (z-score),[41],-0.149
same,glycan array binding signal (z-score),[42],-0.122
same,glycan array binding signal (z-score),[43],-0.16
same,glycan array binding signal (z-score),[44],-0.064
